Test results taken from PubChem BioAssay AID686971 (National Center for Advancing Translational Sciences (NCATS), 2013).
Among all 360,000 compounds or so, about 7,500 (2.1%) were called active. The inconclusive results got no clear call from the source; some entries with a clear call stand among them for comparison. Calls come from the whole dose curve; as a rule, active = well fitted cell-killing curve with a large enough effect; inconclusive = small, poorly fitted or top-dose-only effect, or effect the other way, or another doubt; inactive = no such curve, though single readings can be large or run the other way. Potencies of inconclusive entries are left out as doubtful fits.

Assay: qHTS for induction of synthetic lethality in tumor cells producing 2HG: qHTS for the HT-1080-IDH1KD cell line;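 for activity, negative = toxicity: 0% = DMSO wells and -100% = cell-free medium wells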
Conditions: HT-1080 IDH1 knockdown viability, ATP luminescence, 48 h; activity, negative = toxicity: at 46.1 µM (top of the series) unless noted
In short: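 IDH1KD HT-1080 cells, 750/well, RPMI + 5% FBS; compound pinned after 2 h settling; 48 h, 37 °C; CellTiter-Glo luminescence; % activity normalised to DMSO and no-cell wells; curves fitted, classed by r2 and efficacy.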
Potency is the fitted concentration of half-maximal effect; tags give direction and shape of the fitted curve.

SMILES | Potency | activity, negative = toxicity
COc1ccc(Nc2nc(NCCCN3CCOCC3)nc(N)c2[N+](=O)[O-])cc1 | inconclusive [cytotoxic, partial curve] | –
CCOc1ccc(Nc2nc(N)c3ccccc3n2)cc1 | active: 18.4 µM | –
O=c1c(Cl)c(Cl)cnn1Cc1ccc(F)cc1 | inconclusive [cytotoxic, single point] | –
CCCc1cc(C(N)=O)c(NC(=O)c2ccoc2C)s1 | inconclusive [cytotoxic, single point] | –
O=C(c1ccc(Cn2cc(Br)cn2)cc1)N1CCN(c2ccccc2)CC1 | inconclusive [cytotoxic, single point] | –
Nc1ncnc2c(C3OC(CO)C(O)C3O)c[nH]c12 (stereo not drawn) | active: 0.146 µM | –
COc1ccc(CN2CCc3ccccc3C2)c(OC)c1OC | inactive | –
COc1ccc(CCN2C(=O)CC(Cc3cccc(C)c3)C2=O)cc1OC (stereo not drawn) | inactive | –
COc1ccc(S(=O)(=O)N2CCCCCC2)cc1C(=O)N(C)Cc1cccs1 | inactive | –
O=C(N/N=C/c1ccc([N+](=O)[O-])o1)c1ccncc1 | active: 18.4 µM | –
CCN(c1ccccc1)S(=O)(=O)c1cccc(C(=O)NCC(c2ccc(OC)cc2)N2CCCCC2)c1 (stereo not drawn) | inconclusive [cytotoxic, single point] | –
CSc1c(CC(=O)Nc2ccc(F)cc2)n(Cc2ccccc2)c2ccccc12 | inconclusive [cytotoxic, single point] | –
CCC(=O)NCCCc1nc2ccccc2n1Cc1ccccc1F | inactive | –
O=S(=O)(CC=CCS(=O)(=O)c1ccccc1)c1ccccc1 | inactive | –
CC(=O)Nc1cccc(C(=O)NC2CCCc3c2cnn3-c2ccc(C(C)(C)C)cc2)c1 (stereo not drawn) | inconclusive [cytotoxic, partial curve] | –
NC(=O)N/N=C/c1cn(-c2ccccc2)nc1-c1ccccc1 | inconclusive [cytotoxic, partial curve, poor fit] | –
COc1ccc(-c2nc3c4ccccc4ccn3c2Cc2cccc(Cl)c2)cc1OC | inconclusive [cytotoxic, single point] | –
C[C@H](CO)N1C[C@H](C)[C@@H](CN(C)S(=O)(=O)c2ccccc2)Oc2ccc(NC(=O)Nc3ccc(C(F)(F)F)cc3)cc2C1=O | inconclusive [cytotoxic, single point] | –
COc1ccc([N+](=O)[O-])cc1CN1CCN(c2ncc(Cc3ccccc3)cn2)CC1 | inconclusive [cytotoxic, single point] | –
C=CCn1c(SCC(=O)Nc2nccs2)nnc1-c1cc2cccc(OC)c2o1 | inconclusive [cytotoxic, single point] | –
CCN(CC(=O)Nc1ccccc1OC)C(=O)c1cc(-c2ccccc2)nn1-c1ccccc1 | inconclusive [cytotoxic, single point] | –
Cc1ccc(NC(=O)C(C)NC(=O)OCc2ccccc2)cc1C (stereo not drawn) | inactive | –
C=C(C(=O)c1ccccc1)C(C)CC(=O)c1ccccc1 (stereo not drawn) | active: 20.6 µM | –

SMILES | Potency | activity, negative = toxicity
O=C(COc1ccc2c(c1)OCO2)Nc1nnc(Cc2ccccc2)s1 | inconclusive [cytotoxic, partial curve] | –
Cc1nc2ccc(C(=O)Nc3cccc(OCC(=O)N(C)C)c3)cn2c1N(C)CC1CCCCC1 | inconclusive [cytotoxic, single point] | –
O=C(CSc1nn(-c2ccccc2)c(=S)s1)NC(=O)NCc1ccco1 | inconclusive [cytotoxic, single point] | –
COc1ccc(NC(=O)Cn2nnc(-c3ccccc3NS(=O)(=O)c3ccc(OC)cc3)n2)cc1 | inconclusive [cytotoxic, single point] | –
CC1C(=O)CC(c2ccc([N+](=O)[O-])cc2)NC1c1ccc([N+](=O)[O-])cc1 (stereo not drawn) | inconclusive [cytotoxic, partial curve] | –
COc1cc(CC(=O)Nc2ccc3nc(SC)sc3c2)cc(OC)c1OC | inactive | –
Cc1cc(C)cc(NC(=O)c2cc(S(=O)(=O)NCc3ccco3)ccc2F)c1 | inconclusive [cytotoxic, single point] | –
CCc1n[nH]c(=S)n1/N=C/c1ccc(-c2ccc(Br)cc2)o1 | inconclusive [cytotoxic, single point] | –
Cc1ccc(C(=O)Nc2nc3ccccc3n3nnnc23)cc1 | inactive | –
CCCn1c(C(C)Nc2nc(-c3ccc(Cl)c([N+](=O)[O-])c3)cs2)nc2cc(Cl)c(N3CCCCC3)cc21 (stereo not drawn) | inactive | –
CCOC(=O)C1=C(C)NC2=C(C(=O)CCC2)C1c1cn(Cc2ccc(Cl)cc2Cl)nc1-c1ccccc1 (stereo not drawn) | inconclusive [cytotoxic, partial curve] | –
CCOC(=O)C1CCN(c2ccc(-c3cccs3)nn2)CC1 | inconclusive [cytotoxic, single point] | –
CCOC(=O)c1cc(OC)c2cccc(CN3CCCC(C)(C(=O)NCCOC)C3)c2c1 (stereo not drawn) | inconclusive [cytotoxic, single point] | –
Cc1cc(C)cc(-n2c(C)cc(/C=N/NC(=O)CSc3ncccn3)c2C)c1 | inconclusive [cytotoxic, single point] | –
COCCNc1nc(Nc2ccccc2Cl)c2sccc2n1 | inconclusive [cytotoxic, single point] | –
COc1ccc([N+](=O)[O-])cc1COc1cc(C)cc2oc(=O)cc(-c3ccccc3)c12 | inconclusive [cytotoxic, single point] | –
Cc1cc(C)cc(N(C(=O)c2csnn2)C(C(=O)NC2CCCC2)c2ccccn2)c1 (stereo not drawn) | inactive | –
CC1C(=O)N(Cc2cn(CCC3OCCCO3)nn2)CCS(=O)(=O)N1Cc1ccc(-c2ccc(Cl)cc2)cc1 (stereo not drawn) | inconclusive [cytotoxic, single point] | –
COc1ccc(Cc2c(C(C)(C)C)nc3ccc(Cl)cn23)c(C)c1 | inconclusive [cytotoxic, single point] | –
CCOc1ccc2nc(NC(=O)CSc3nnnn3C3CCCCC3)sc2c1 | inconclusive [cytotoxic, partial curve, poor fit] | –
CCOc1ccc2nc(NC(=O)c3ccc(OCC4CCCO4)cc3)sc2c1 (stereo not drawn) | inconclusive [cytotoxic, partial curve] | –
O=C(OC1CCCCC1)c1ccc(NC(=O)c2ccco2)cc1 | inconclusive [cytotoxic, single point] | –
O=C(CSc1nnc(COc2cccc3cccnc23)o1)N1CCc2ccccc21 | active: 1.26 µM | –

SMILES | Potency | activity, negative = toxicity
O[C@H]1C[C@H](c2ccccc2)N(Cc2cccs2)C[C@@H]1n1cc(-c2ccc(F)cc2)nn1 | active: 18.4 µM | –
Cc1nnc(SC(C(=O)c2ccccc2)c2ccccc2)[nH]c1=O (stereo not drawn) | inconclusive [cytotoxic, single point] | –
Cc1ccsc1C(=O)NNC(=O)c1cccc(S(=O)(=O)N2CCCC2)c1 | inactive | –
OCCN1CCN(c2ncnc3c2ncn3[C@H]2CN(Cc3ccc(Cl)cc3)C[C@@H](CO)O2)CC1 | inactive | –
O=C(Cc1ccc(Br)cc1)Nc1cccc(-c2cn3c(n2)SCC3)c1 | inconclusive [cytotoxic, partial curve, poor fit] | –
CCOc1cc(C(=O)CSc2nnc(CNc3ccc(Cl)cc3)o2)ccc1NC(=O)CC | inconclusive [cytotoxic, single point] | –
CCOC(=O)c1ccc(S(=O)(=O)N2CCN(C(=O)c3cccc(S(=O)(=O)N4CC(C)OC(C)C4)c3)CC2)cc1 (stereo not drawn) | inactive | –
Cc1cc(Cl)c(OCCOCCN2CCCC(C)C2)c(Br)c1 (stereo not drawn) | inconclusive [cytotoxic, single point] | –
c1ccc(N2CCN(c3ccccc3)C2c2ccncc2)cc1 | inactive | –
CCOC(=O)c1csc(N/N=C2\CCCc3ccccc32)n1 | inactive | –
Cc1ccccc1-c1cc(C(=O)Nc2nc3c(s2)CCCC3)c2ccccc2n1 | inconclusive [cytotoxic, single point] | –
CCOC(=O)[C@]12CCCC=C1N(Cc1ccc(Cl)cc1Cl)C(=O)[C@H](CC(=O)NCCc1ccccc1OC)C2 | inconclusive [cytotoxic, single point] | –
NC(=O)c1sc2nc(-c3ccccc3)ccc2c1N | inactive | –
Nc1cccc(OCCCCCOc2cccc(N)c2)c1 | inconclusive [cytotoxic, single point] | –
CC(=O)Oc1ccccc1C(=O)C=Cc1cccc([N+](=O)[O-])c1 | active: 16.4 µM | –
CCCCCCSc1cccc(-c2nc3ccc(C)cn3c2NC2CCCCC2)c1 | inconclusive [cytotoxic, single point] | –
Cc1nc(C(F)(F)F)ccc1C(=O)N1CCC1(C)C(=O)NS(=O)(=O)c1c(C)noc1C (stereo not drawn) | inconclusive [rising, partial curve] | –
C[C@H](NC(=O)c1[nH]cnc1C(=O)Nc1ccc(Cl)cc1)c1ccccc1 | inconclusive [cytotoxic, single point] | –
Cc1ccc(N=C(NO)c2cnccc2C(F)(F)F)c(C)c1 | inactive | –
CCC1=NN(C(=O)c2ccc(Cl)cc2)C(O)(c2ccc(C)cc2)C1 (stereo not drawn) | inconclusive [cytotoxic, single point] | –
Cc1noc(C)c1C(=O)NCc1ccccc1Br | – | inconclusive: -0.883%
CS(=O)(=O)N1Cc2cc(C(=O)NCC3CC3)nc(-c3cccc(-c4cccnc4)c3)c2[C@@H]1CCO | inconclusive [cytotoxic, single point] | –
